First the molecules themselves.
B1: CUGCGGG (DNA:RNA)
RNA: GGGAGACCGGAAUUCAGAUUGUCCCUGCGGGUUAAAUCCCGUCGUAGCCACCA
DNA 1: CAATCTGAATTCCGGTCTCCC
DNA 2: TGGTGGCTACGACGGGATT
B2: AUGCGUG (DNA:RNA)
RNA: B1 RNA with C25A, G30U
DNA 1: CAATCTGAATTCCGGTCTCCC
DNA 2: TGGTGGCTACGACGGGATT
B3: UCCCAGG (DNA:RNA)
RNA: B1 RNA with C25U, U26C, G27C, G29A
DNA 1: CAATCTGAATTCCGGTCTCCC
DNA 2: TGGTGGCTACGACGGGATT
B4: GUUAGUA (DNA:RNA)
RNA: B1 RNA with C25G, G27U, C28A, G30U, G31A
DNA 1: CAATCTGAATTCCGGTCTCCC
DNA 2: TGGTGGCTACGACGGGATT
B5: GCUAUGC (DNA:RNA)
RNA: B1 RNA with C25G, U26C, G27U, C28A, G29U, G31C
DNA 1: CAATCTGAATTCCGGTCTCCC
DNA 2: TGGTGGCTACGACGGGATT
B6: CACGGAG (DNA:RNA)
RNA: B1 RNA with U26A, G27C, C28G, G30A
DNA 1: CAATCTGAATTCCGGTCTCCC
DNA 2: TGGTGGCTACGACGGGATT
B7: UGAAAUU (DNA:RNA)
RNA: GGGAGACCGGAAUUCAGAUUGUCCUGAAAUUUUAAAUCCCGUCGUAGCCACCA
DNA 1: CAATCTGAATTCCGGTCTCCC
DNA 2: TGGTGGCTACGACGGGATT
B8: CAUCCAG (DNA:RNA)
RNA: B1 RNA with U26A, G27U, G29C, G30A
DNA 1: CAATCTGAATTCCGGTCTCCC
DNA 2: TGGTGGCTACGACGGGATT
B9: CAGAUGG (DNA:RNA)
RNA: B1 RNA with U26A, C28A, G29U
DNA 1: CAATCTGAATTCCGGTCTCCC
DNA 2: TGGTGGCTACGACGGGATT
B10: AAGAAGA (DNA:RNA)
RNA: B1 RNA with C25A, U26A, C28A, G29A, G31A
DNA 1: CAATCTGAATTCCGGTCTCCC
DNA 2: TGGTGGCTACGACGGGATT
B11: AAGAACC (DNA:RNA)
RNA: B7 RNA with U25A, G26A, A27G, U30C, U31C
DNA 1: CAATCTGAATTCCGGTCTCCC
DNA 2: TGGTGGCTACGACGGGATT
B12: ACGGCAA (DNA:RNA)
RNA: B1 RNA with C25A, U26C, C28G, G29C, G30A, G31A
DNA 1: CAATCTGAATTCCGGTCTCCC
DNA 2: TGGTGGCTACGACGGGATT
B13: ACGGUUC (DNA:RNA)
RNA: B1 RNA with C25A, U26C, C28G, G29U, G30U, G31C
DNA 1: CAATCTGAATTCCGGTCTCCC
DNA 2: TGGTGGCTACGACGGGATT
B14: CAAGAUG (DNA:RNA)
RNA: B7 RNA with U25C, G26A, A28G, U31G
DNA 1: CAATCTGAATTCCGGTCTCCC
DNA 2: TGGTGGCTACGACGGGATT
B15: ACCCCGA (DNA:RNA)
RNA: B1 RNA with C25A, U26C, G27C, G29C, G31A
DNA 1: CAATCTGAATTCCGGTCTCCC
DNA 2: TGGTGGCTACGACGGGATT
B16: CGCCAUU (DNA:RNA)
RNA: B7 RNA with U25C, A27C, A28C
DNA 1: CAATCTGAATTCCGGTCTCCC
DNA 2: TGGTGGCTACGACGGGATT
B17: CAUGCUA (DNA:RNA)
RNA: B1 RNA with U26A, G27U, C28G, G29C, G30U, G31A
DNA 1: CAATCTGAATTCCGGTCTCCC
DNA 2: TGGTGGCTACGACGGGATT
B18: GUUACCA (DNA:RNA)
RNA: B1 RNA with C25G, G27U, C28A, G29C, G30C, G31A
DNA 1: CAATCTGAATTCCGGTCTCCC
DNA 2: TGGTGGCTACGACGGGATT
B19: GUCAUCU (DNA:RNA)
RNA: B7 RNA with U25G, G26U, A27C, A29U, U30C
DNA 1: CAATCTGAATTCCGGTCTCCC
DNA 2: TGGTGGCTACGACGGGATT
B20: UAAUAAU (DNA:RNA)
RNA: B7 RNA with G26A, A28U, U30A
DNA 1: CAATCTGAATTCCGGTCTCCC
DNA 2: TGGTGGCTACGACGGGATT
B21: CAGUACG (DNA:RNA)
RNA: B1 RNA with U26A, C28U, G29A, G30C
DNA 1: CAATCTGAATTCCGGTCTCCC
DNA 2: TGGTGGCTACGACGGGATT
B22: UGUUCAU (DNA:RNA)
RNA: B7 RNA with A27U, A28U, A29C, U30A
DNA 1: CAATCTGAATTCCGGTCTCCC
DNA 2: TGGTGGCTACGACGGGATT
B23: UGGUACA (DNA:RNA)
RNA: B7 RNA with A27G, A28U, U30C, U31A
DNA 1: CAATCTGAATTCCGGTCTCCC
DNA 2: TGGTGGCTACGACGGGATT
B24: AACUUAG (DNA:RNA)
RNA: B1 RNA with C25A, U26A, G27C, C28U, G29U, G30A
DNA 1: CAATCTGAATTCCGGTCTCCC
DNA 2: TGGTGGCTACGACGGGATT
B25: AAGUAUA (DNA:RNA)
RNA: B7 RNA with U25A, G26A, A27G, A28U, U31A
DNA 1: CAATCTGAATTCCGGTCTCCC
DNA 2: TGGTGGCTACGACGGGATT
B26: AACGCAU (DNA:RNA)
RNA: B7 RNA with U25A, G26A, A27C, A28G, A29C, U30A
DNA 1: CAATCTGAATTCCGGTCTCCC
DNA 2: TGGTGGCTACGACGGGATT
B27: CCUCUGC (DNA:RNA)
RNA: B1 RNA with U26C, G27U, G29U, G31C
DNA 1: CAATCTGAATTCCGGTCTCCC
DNA 2: TGGTGGCTACGACGGGATT
B28: UACAAUU (DNA:RNA)
RNA: B7 RNA with G26A, A27C
DNA 1: CAATCTGAATTCCGGTCTCCC
DNA 2: TGGTGGCTACGACGGGATT
B29: AAUAGUU (DNA:RNA)
RNA: B7 RNA with U25A, G26A, A27U, A29G
DNA 1: CAATCTGAATTCCGGTCTCCC
DNA 2: TGGTGGCTACGACGGGATT
B30: CCUAAAU (DNA:RNA)
RNA: B7 RNA with U25C, G26C, A27U, U30A
DNA 1: CAATCTGAATTCCGGTCTCCC
DNA 2: TGGTGGCTACGACGGGATT
B31: GAGAACG (DNA:RNA)
RNA: B1 RNA with C25G, U26A, C28A, G29A, G30C
DNA 1: CAATCTGAATTCCGGTCTCCC
DNA 2: TGGTGGCTACGACGGGATT

Changes are numbered by the printed parent chain; changes in the protein carry UniProt numbers. This is one part of the list.

In the assay the target is T1, RBFOX1 RRM RbFoxmut (Fox-RRM*) (Homo sapiens, UniProt Q9NWB1 109-208, R118D;E147R;N151S;E152T).
T1 sequence: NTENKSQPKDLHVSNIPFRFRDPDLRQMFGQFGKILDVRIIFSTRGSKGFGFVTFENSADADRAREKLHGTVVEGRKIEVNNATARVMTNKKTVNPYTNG
The experiment in a line: EMSA; HiTS-Eq, 1 nM pool, 10 min; buffer printed only for the single-RNA assays: 10 mM Tris pH 7.5, 150 mM NaCl, 3.4 mM EDTA, 0.001% NP-40, 30 C. The settings on record: tags: His6 N-terminal (pET28a); label: 5' 32P. Summed up: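 Purified wild-type or mutant RbFox RRM at increasing concentrations was equilibrated with 1 nM of 5′-radiolabelled RNA carrying 7 randomized nucleotides for 10 min in 50 µL. Unbound RNA was separated by 8% native PAGE and sequenced. Relative association constants came from read-count changes of each RNA species compared with the control reaction, normalised to the cognate motif.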
As for B1, the binding signal is 0.0951 KA relative to UGCAUGU.
Then B2, with 0.261 KA relative to UGCAUGU; and B3, with 0.0761 KA relative to UGCAUGU; and B4, with 0.141 KA relative to UGCAUGU.
With B5 the figure was 0.112 KA relative to UGCAUGU; with B6, 0.121 KA relative to UGCAUGU.
B7: the binding signal was 0.0713 KA relative to UGCAUGU.
Turning to B8, the binding signal was 0.12 KA relative to UGCAUGU.
B9: the binding signal is 0.0858 KA relative to UGCAUGU.
In the case of B10, the binding signal is 0.104 KA relative to UGCAUGU.
Take B11: the binding signal was 0.0853 KA relative to UGCAUGU.
Then B12, with 0.0858 KA relative to UGCAUGU.
Take B13: the binding signal is 0.122 KA relative to UGCAUGU.
Consider B14, for which the binding signal is 0.0773 KA relative to UGCAUGU.
Take B15: the binding signal is 0.0644 KA relative to UGCAUGU.
B16: the binding signal is 0.0791 KA relative to UGCAUGU.
On to B17, for which the binding signal is 0.133 KA relative to UGCAUGU.
Take B18: the binding signal is 0.0752 KA relative to UGCAUGU.
In the case of B19, the binding signal is 0.111 KA relative to UGCAUGU.
For the molecule B20, the binding signal was 0.0595 KA relative to UGCAUGU.
Consider B21, for which the binding signal is 0.124 KA relative to UGCAUGU.
As to B22, the binding signal is 0.117 KA relative to UGCAUGU.
As for B23, the binding signal was 0.107 KA relative to UGCAUGU.
For the molecule B24, the binding signal is 0.102 KA relative to UGCAUGU.
Then B25, with 0.191 KA relative to UGCAUGU; and B26, with 0.104 KA relative to UGCAUGU; and B27, with 0.0985 KA relative to UGCAUGU.
As for B28, the binding signal was 0.0539 KA relative to UGCAUGU.
With B29 the figure was 0.106 KA relative to UGCAUGU.
Take B30: the binding signal was 0.0638 KA relative to UGCAUGU.
Turning to B31, the binding signal was 0.347 KA relative to UGCAUGU.

The record behind these values is PMC9911399, “Two distinct binding modes provide the RNA-binding protein RbFox with extraordinary sequence specificity”.
